Data published in the supplement of paper PMC7125110.
± gives the standard error. Variants at the background level are over-represented here.

B1: glmS ribozyme (parent)
chain: AUAAAAGCGCCAGAACUACAGAAAUGUAGUUGACGAGGAGGAGGUUUAUCGAAUUUUCGGCGGAUGCCUCCAAA

Experiments:
Conditions in all cases: with glucosamine-6-phosphate
[1] = variants of: B1; assay: self-cleavage kobs at 640 uM GlcN6P; higher = faster cleavage; RNA array
How it was run: (§1)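 Glucosamine-6-phosphate (40 μM to 10 mM) in HEPES/KCl/Mg(OAc)2 buffer was flowed over sequenced MiSeq chips, and tiles were imaged over ~14 h. Barcoded ribozyme variants there had been transcribed in situ by E. coli RNA polymerase and were tracked through a hybridised Cy3 probe at 37 °C. One- or two-exponential decay fits to per-tile medians, normalised to baseline and to non-cleaving reference variants, gave kobs. kcat and KM came from weighted Michaelis–Menten fits across concentrations.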

[2] = variants of: B1; assay: self-cleavage kobs at 2500 uM GlcN6P; higher = faster cleavage; RNA array
How it was run: as §1

[3] = variants of: B1; assay: self-cleavage kobs at 10000 uM GlcN6P; higher = faster cleavage; RNA array
How it was run: as §1

[4] = variants of: B1; assay: self-cleavage kobs at 160 uM GlcN6P; higher = faster cleavage; RNA array
How it was run: as §1

Variant | self-cleavage kobs at 640 uM GlcN6P [1] [s⁻¹] | self-cleavage kobs at 2500 uM GlcN6P [2] [s⁻¹] | self-cleavage kobs at 10000 uM GlcN6P [3] [s⁻¹] | self-cleavage kobs at 160 uM GlcN6P [4] [s⁻¹]
U46C G63A | < 1e-05 | < 1e-05 | < 1e-05 | 
G40A G43A U49C A52G |  | < 1e-05 |  | < 1e-05
G40A U57G C67G | < 1e-05 | < 1e-05 |  | 
G13C C58G |  |  |  | < 1e-05
G37C G43C | < 1e-05 | < 1e-05 | < 1e-05 | < 1e-05
G38C A42G U49G A52G G63C | < 1e-05 | < 1e-05 |  | 
A42U A52C G60C G63U C67A C70G | < 1e-05 |  |  | 
G9C G38C |  |  |  | < 1e-05
U31C G44C |  |  |  | < 1e-05
C34U U46G U65A |  |  |  | < 1e-05
A6C G9U |  | < 1e-05 | < 1e-05 | < 1e-05
U46G U65C |  |  |  | < 1e-05
G9U A14U G35U |  | < 1e-05 |  | < 1e-05
A6U A12U G35U G60U |  |  |  | < 1e-05
U56A G62A |  | < 1e-05 |  | < 1e-05
G37C G40C A42C | < 1e-05 | < 1e-05 |  | < 1e-05
G44U A53G U57G |  | < 1e-05 |  | < 1e-05
A15U U57A C61U U65G |  | < 1e-05 |  | < 1e-05
A6C G38A G40C G62C U65C |  | < 1e-05 |  | 
G9A C11A A12C A14U |  | < 1e-05 |  | < 1e-05
A6U U45G G63A |  | < 1e-05 |  | 
A42C G62U C71G | < 1e-05 | < 1e-05 |  | 
C11A A14C |  | 3.05e-05 ± 1.3e-05 | 4.9e-05 ± 1.5e-05 | < 1e-05
A6U G9A U49C |  |  |  | < 1e-05
A12G A53U G63C |  |  | < 1e-05 | < 1e-05

Variant | self-cleavage kobs at 640 uM GlcN6P [1] [s⁻¹] | self-cleavage kobs at 2500 uM GlcN6P [2] [s⁻¹] | self-cleavage kobs at 10000 uM GlcN6P [3] [s⁻¹] | self-cleavage kobs at 160 uM GlcN6P [4] [s⁻¹]
G43A U46A A48C G60A | < 1e-05 | < 1e-05 |  | 
G7A A15U U46G |  | < 1e-05 |  | 
G40C G44U | < 1e-05 | < 1e-05 |  | < 1e-05
G38C G44U U55A C68G | < 1e-05 |  |  | 
G38C G43U U69A | < 1e-05 | < 1e-05 |  | 
A39C G43A G66A | < 1e-05 |  |  | 
C58A C67U | 6.4e-05 ± 1e-05 | 0.000161 ± 2e-05 | 0.000182 ± 1.7e-05 | 
A39G G41C U46G A64U |  |  |  | < 1e-05
C34U G43U C50A G51U U55G |  |  |  | < 1e-05
A33C A48U G62C C70A |  | < 1e-05 |  | < 1e-05
A6G C8A U31C G62C |  | < 1e-05 |  | 
A33U U47C G63U |  | < 1e-05 |  | < 1e-05
A6U C8G G40C |  | < 1e-05 |  | 
U47C A52U | 3.84e-05 ± 1.6e-05 | 0.000145 ± 2.3e-05 | 0.000231 ± 4.7e-05 | 
U46G G63A | < 1e-05 | < 1e-05 |  | < 1e-05
G38C U55A | < 1e-05 |  |  | < 1e-05
A42U C50U C70G | < 1e-05 | < 1e-05 |  | 
A6G G41U G60U |  | < 1e-05 |  | 
G51U C58U |  |  | < 1e-05 | < 1e-05
A6C G7A C50U |  |  |  | < 1e-05
A39U U57G |  |  |  | < 1e-05
G7C A12C A14U |  | < 1e-05 | < 1e-05 | 
A64C U69C |  |  |  | < 1e-05
A6G C70G |  |  |  | < 1e-05
G35U A36U |  | < 1e-05 |  | < 1e-05

Variant | self-cleavage kobs at 640 uM GlcN6P [1] [s⁻¹] | self-cleavage kobs at 2500 uM GlcN6P [2] [s⁻¹] | self-cleavage kobs at 10000 uM GlcN6P [3] [s⁻¹] | self-cleavage kobs at 160 uM GlcN6P [4] [s⁻¹]
A6C G9U C10U G13A U69G |  | < 1e-05 |  | < 1e-05
C11A A52U U54A C58A G59U G63C |  | < 1e-05 |  | < 1e-05
C58A G62U | < 1e-05 | < 1e-05 | < 1e-05 | < 1e-05
A52U G66C |  |  |  | < 1e-05
U45G G60A | < 1e-05 | < 1e-05 |  | < 1e-05
U45C A48U |  |  |  | < 1e-05
C10A G13C U45A G51C |  |  |  | < 1e-05
G37C U47C G60U |  |  |  | < 1e-05
A36G A42U U56C | < 1e-05 | < 1e-05 |  | < 1e-05
G41U A52C C68U | < 1e-05 | < 1e-05 |  | 
G40C G51C C70A | < 1e-05 | < 1e-05 |  | < 1e-05
G9C G43C |  | < 1e-05 |  | < 1e-05
A15U G41A G51A A52C C67A |  | < 1e-05 |  | < 1e-05
C58G A64C C67U | 7.21e-05 ± 2e-05 |  |  | 
A6G C34A G35U A39C A48U U55A C58G |  | < 1e-05 |  | 
G44C G60U | < 1e-05 | < 1e-05 | < 1e-05 | < 1e-05
G7U U31G A48U A52C C58U |  | < 1e-05 |  | 
G38C A39C G43A U45G A52U | < 1e-05 | < 1e-05 |  | 
G44A U65C | < 1e-05 |  |  | 
C61A C67A | 5.15e-05 ± 1.8e-05 |  |  | 5.31e-05 ± 1.5e-05
G40C U55C U69A |  |  |  | < 1e-05
G7C A15U G44C U56A C71A |  | < 1e-05 |  | 
A6C A15U |  |  |  | < 1e-05
A53U U57G C58G G60C G66A |  | < 1e-05 |  | < 1e-05
G40A G41A | 6.83e-05 ± 1.2e-05 | 0.000163 ± 2.3e-05 |  | 

Variant | self-cleavage kobs at 640 uM GlcN6P [1] [s⁻¹] | self-cleavage kobs at 2500 uM GlcN6P [2] [s⁻¹] | self-cleavage kobs at 10000 uM GlcN6P [3] [s⁻¹] | self-cleavage kobs at 160 uM GlcN6P [4] [s⁻¹]
G40A G41C | 4.87e-05 ± 1.8e-05 | 0.000179 ± 4.9e-05 | 0.000123 ± 1.4e-05 | 
G41A G44A C61A C68A |  |  |  | < 1e-05
A6G G32U C50G U57G C61A G66U |  | 0.000553 ± 9.8e-05 | 9.54e-05 ± 1.9e-05 | 0.000258 ± 4.1e-05
C50U A53C | < 1e-05 |  |  | 
G43C U45A C67U | 0.000977 ± 0.00034 | 0.00269 ± 0.00071 |  | 0.000282 ± 9.2e-05
C8A C11U U55A |  | < 1e-05 |  | < 1e-05
U31G G44U G51U |  |  |  | < 1e-05
A6G G38U A53U |  | < 1e-05 |  | 
C11G A14G G29A |  |  |  | < 1e-05
G63C C67U |  | < 1e-05 |  | < 1e-05
A12G G35U A53U |  |  | < 1e-05 | < 1e-05
A42U G60C | < 1e-05 |  | < 1e-05 | < 1e-05
G7A G13A C16G |  | < 1e-05 | < 1e-05 | 
C58G C70A | 4.04e-05 ± 1.9e-05 | 5.93e-05 ± 1.4e-05 |  | 0.000411 ± 0.00017
A12U U45C A53G U57G |  |  |  | < 1e-05
G35U C58U G63U |  | < 1e-05 |  | < 1e-05
G37C G41C U56G C58U | < 1e-05 |  |  | 
A6U G13A C34A U57G |  | < 1e-05 |  | < 1e-05
G13C G66U |  |  |  | < 1e-05
A48G U57G | < 1e-05 |  |  | < 1e-05
C58A C71U | 7.43e-05 ± 7.2e-06 | 0.000183 ± 1.6e-05 |  | 4.42e-05 ± 1.2e-05
G37U G43U C67U | < 1e-05 | < 1e-05 | < 1e-05 | 
G40C U47C C68G | < 1e-05 |  |  | 
G41C G63U | < 1e-05 |  | < 1e-05 | 
G32C A39G U56G G63C C67A |  | < 1e-05 |  | < 1e-05

Variant | self-cleavage kobs at 640 uM GlcN6P [1] [s⁻¹] | self-cleavage kobs at 2500 uM GlcN6P [2] [s⁻¹] | self-cleavage kobs at 10000 uM GlcN6P [3] [s⁻¹] | self-cleavage kobs at 160 uM GlcN6P [4] [s⁻¹]
G37C U65A | < 1e-05 |  |  | < 1e-05
A36U A42G U49A G51A | < 1e-05 |  |  | 
A53U U55G C61A G62C | < 1e-05 |  |  | 
A36G G66U | < 1e-05 | < 1e-05 | < 1e-05 | 
A36U G44C C61U C71A | < 1e-05 |  |  | 
U49G A52C A53G U55C C61A | < 1e-05 |  |  | 
A36G G43A G59U | < 1e-05 | < 1e-05 |  | 
C50A U55C C71G |  |  | < 1e-05 | < 1e-05
G7C G37C G40U |  | < 1e-05 |  | 
U47A G59C C71A | < 1e-05 |  |  | 
A36G A48C C50U | < 1e-05 |  |  | 
G41U C58U C67A | < 1e-05 | < 1e-05 |  | 
U45A C50A A53G |  |  |  | < 1e-05
A6U G41C C68U |  | < 1e-05 |  | < 1e-05
G41U G60C C71G |  | < 1e-05 |  | < 1e-05
A6C A14G G32U A42C |  | < 1e-05 |  | 
G38C G40U | < 1e-05 | < 1e-05 | < 1e-05 | 
A15G C16U A33U A39G |  |  |  | < 1e-05
C58G C68A U69G | 0.000107 ± 3.5e-05 | 5.37e-05 ± 2.4e-05 |  | 
G38C G59U | < 1e-05 |  |  | < 1e-05
A6C C8U C11U |  | < 1e-05 |  | < 1e-05
G43A G66C | < 1e-05 |  |  | < 1e-05
G59A G62A | < 1e-05 | < 1e-05 | < 1e-05 | < 1e-05
